According to article PMC4336329 (PLoS ONE, 2015):
Out of some 310,000 compounds screened, about 14,000 (4.5%) showed an effect of 50% or more. Effects have a minus sign here. This is one part of the list.

Molecular target: human ether-à-go-go-related gene (hERG) potassium channel (human, UniProt Q12809)
Test: primary screen, population patch clamp on CHO cells stably expressing hERG
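Further: peak tail current of the secondary pulse compared with the same well before compound.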

Chain of human ether-à-go-go-related gene (hERG) potassium channel (Q12809 whole entry, looked up): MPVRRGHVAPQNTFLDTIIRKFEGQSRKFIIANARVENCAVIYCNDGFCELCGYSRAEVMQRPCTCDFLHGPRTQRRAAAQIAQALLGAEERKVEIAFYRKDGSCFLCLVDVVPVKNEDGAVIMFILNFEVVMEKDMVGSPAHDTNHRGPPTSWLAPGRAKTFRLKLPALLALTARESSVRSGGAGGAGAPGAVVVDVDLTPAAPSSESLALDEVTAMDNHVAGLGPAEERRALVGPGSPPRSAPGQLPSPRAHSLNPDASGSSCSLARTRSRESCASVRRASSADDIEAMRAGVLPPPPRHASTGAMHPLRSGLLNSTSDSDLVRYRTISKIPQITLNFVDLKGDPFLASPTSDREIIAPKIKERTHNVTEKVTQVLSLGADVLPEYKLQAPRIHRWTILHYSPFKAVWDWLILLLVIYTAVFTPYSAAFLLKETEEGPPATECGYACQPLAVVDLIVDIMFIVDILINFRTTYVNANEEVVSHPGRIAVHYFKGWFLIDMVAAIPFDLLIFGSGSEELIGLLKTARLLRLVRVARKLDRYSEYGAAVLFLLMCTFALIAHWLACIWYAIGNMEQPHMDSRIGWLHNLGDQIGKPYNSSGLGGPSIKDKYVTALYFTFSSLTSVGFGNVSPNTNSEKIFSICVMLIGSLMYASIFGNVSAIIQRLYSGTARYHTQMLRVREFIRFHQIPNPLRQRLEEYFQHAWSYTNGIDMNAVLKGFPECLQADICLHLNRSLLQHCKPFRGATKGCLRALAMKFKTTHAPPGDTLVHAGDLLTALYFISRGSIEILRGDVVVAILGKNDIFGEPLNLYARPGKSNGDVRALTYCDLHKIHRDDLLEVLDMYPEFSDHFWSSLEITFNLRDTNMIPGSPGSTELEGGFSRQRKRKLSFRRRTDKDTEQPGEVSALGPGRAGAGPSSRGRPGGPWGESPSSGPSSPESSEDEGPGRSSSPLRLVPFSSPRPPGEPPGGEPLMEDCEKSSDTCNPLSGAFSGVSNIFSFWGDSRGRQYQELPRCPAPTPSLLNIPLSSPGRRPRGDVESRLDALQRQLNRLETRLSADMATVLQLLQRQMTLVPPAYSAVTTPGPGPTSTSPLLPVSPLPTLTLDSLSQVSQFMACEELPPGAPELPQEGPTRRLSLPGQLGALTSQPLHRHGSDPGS

| Compound | hERG current change (%, negative = inhibition) at 10uM |
| --- | --- |
| CC(Cc1ccccc1)NC(=O)c1cc([N+](=O)[O-])ccc1Cl (stereo not shown) | -4.69% |
| CCS(=O)(=O)Nc1c(C(=O)O)[nH]c2ccccc12 | -7.59% |
| COc1ccc(OC)c(/C(O)=C/C(=O)C(=O)Nc2cc(C)ccc2OC)c1 | 13% |
| COc1ccc(S(=O)(=O)N2CCCCCC2)cc1C(=O)N(CC(C)C)C1CCS(=O)(=O)C1 (stereo not shown) | -20.9% |
| CCCN(CCC)S(=O)(=O)c1cccc(C(=O)N=c2sccn2C)c1 | 15.2% |
| Cc1ccc(S(=O)(=O)N2CCC(C(=O)NNC(=O)c3ccccc3O)CC2)cc1 | -3.99% |
| COc1ccccc1NC(=O)COC(=O)c1ccc(N2CCCC2=O)cc1 | -3.12% |
| Cc1ccc(-n2c(SCC(N)=O)nc3c(oc4ccccc43)c2=O)cc1 | 14.7% |
| O=C(CCc1nc2ccccc2[nH]1)N1CCN(C(=O)c2ccco2)CC1 | 6.93% |
| CSC(=Nc1ccccc1)C1=C(O)COC1=O | 12% |
| CC(NC(=O)c1ccccc1F)c1nnc(SCC(=O)Nc2nnc(C3CC3)s2)n1C (stereo not shown) | 16.2% |
| COCC1CCCN(Cc2cn(-c3ccccc3F)nc2-c2cc(C)sc2C)C1 (stereo not shown) | -39.4% |
| CC(Sc1nnc(C2CC2)n1C1CC1)C(=O)N(C)C1(C#N)CCCCC1 (stereo not shown) | -17.4% |
| COc1ccccc1CNC(=O)[C@@H]1CCCN1C(=O)C1CCN(S(=O)(=O)c2ccc(C)cc2)CC1 | -10.2% |
| Cc1ccc(S(=O)(=O)N2CCCC(C(=O)NCC3COCCO3)C2)cc1 (stereo not shown) | -7.48% |
| Cc1ccc(C(=O)Nn2c(C)nc3ccccc3c2=O)cc1C | 23.2% |
| Cl.c1ccc(CCNCc2ccccc2)cc1 | -9.4% |
| Cc1ccc(OCCNC(=O)/C=C/c2ccccc2)cc1C | -8.32% |
| Cc1ccccc1N1C(=S)NC2c3ccccc3OC1(C)C2C(=O)N(C)C (stereo not shown) | -10.7% |
| C/C(=N\NC(=O)C(C)n1nc(C)c([N+](=O)[O-])c1C)c1ccccc1O (stereo not shown) | -12.1% |
| O=C1[C@H]2C(c3ccccc3)=NN(c3ccccc3)[C@H]2C(=O)N1c1ccccc1 | 12.3% |
| Cc1cc(O)c2c(CN3CCN(Cc4ccccc4)CC3)cc(=O)oc2c1 | -13.1% |

| Compound | hERG current change (%, negative = inhibition) at 10uM |
| --- | --- |
| CC(C)CC1Nc2ncnc(N3CCN(c4ccccc4)CC3)c2N(Cc2ccc(Br)cc2)C1=O.O=C(O)C(F)(F)F (stereo not shown) | -4.72% |
| Cn1c(C(=O)NCCN2CCOCC2)cc2c(=O)n(C)c3ccccc3c21 | -3.32% |
| COc1ccc(-n2c(COc3ccc(Cl)cc3)nnc2SCc2ccc(C#N)cc2)cc1 | 0.977% |
| CCCCn1c(NC(C)=O)c(C#N)c2nc3ccccc3nc21 | 14.1% |
| O=C(COC(=O)c1cc(=O)c2ccccc2o1)NC1CCCC1 | 16.8% |
| O=C1CC(c2ccc(F)cc2)CC2=C1C=Nc1ccccc1N2 (stereo not shown) | -72.8% |
| CSc1nc(N)nc(SCC(=O)CC(=O)OC(C)C)c1C#N | -11.5% |
| O=C(CCOc1ccccc1)N1CCN(c2ccc(O)cc2)CC1 | -34.4% |
| COc1ccc(Cn2ccnc2SCC(=O)Nc2nnc(C)s2)cc1 | 12.2% |
| CCCCNC(=O)c1cc2c(=O)n3cccc(C)c3nc2s1 | 7.96% |
| O=C1CC(c2ccccc2)NC(=O)N1 (stereo not shown) | -10.5% |
| O=C(CC1C(=O)NCCN1Cc1ccc(F)cc1)NCCOc1cccnc1 (stereo not shown) | 8.34% |
| COc1ccc(-c2nnc(-c3cc(OC)c(OC)c(OC)c3)o2)cc1OC | -5.96% |
| COc1cc(NS(=O)(=O)c2ccc(NC(=O)CCC(=O)O)cc2)nc(OC)n1 | 7.35% |
| CC(C)c1cc(C(=O)NC2CCCCC2)no1 | -1.07% |
| O=C(O)COc1ccccc1 | 23.6% |
| Cc1cc(NS(=O)(=O)c2ccc(NC(=O)CSc3nc4ncc(Cl)cc4[nH]3)cc2)nc(C)n1 | 18.5% |
| COc1cccc(/C=C(/C#N)c2nc3ccccc3[nH]2)c1OC(C)C(=O)O (stereo not shown) | 10.2% |
| COc1ccc(NS(=O)(=O)c2c(C)cc(C)cc2C)cc1 | -7.32% |
| Cc1nnc(SCC(=O)N2CCCC(N3CCN(c4ccc(F)cc4)CC3)C2)o1 (stereo not shown) | -28.8% |
| Cc1ccc(CNc2ncccc2-c2nc3cc(Cl)ccc3o2)cc1 | 3.59% |
